# PMC6901431
# The chains behind the UniProt entries cited, without tags or fusion partners. Where a name states a change or a piece, a line headed by the entry shows the natural chain unless it says otherwise. Residues count along the entry.
# UniProt P31749: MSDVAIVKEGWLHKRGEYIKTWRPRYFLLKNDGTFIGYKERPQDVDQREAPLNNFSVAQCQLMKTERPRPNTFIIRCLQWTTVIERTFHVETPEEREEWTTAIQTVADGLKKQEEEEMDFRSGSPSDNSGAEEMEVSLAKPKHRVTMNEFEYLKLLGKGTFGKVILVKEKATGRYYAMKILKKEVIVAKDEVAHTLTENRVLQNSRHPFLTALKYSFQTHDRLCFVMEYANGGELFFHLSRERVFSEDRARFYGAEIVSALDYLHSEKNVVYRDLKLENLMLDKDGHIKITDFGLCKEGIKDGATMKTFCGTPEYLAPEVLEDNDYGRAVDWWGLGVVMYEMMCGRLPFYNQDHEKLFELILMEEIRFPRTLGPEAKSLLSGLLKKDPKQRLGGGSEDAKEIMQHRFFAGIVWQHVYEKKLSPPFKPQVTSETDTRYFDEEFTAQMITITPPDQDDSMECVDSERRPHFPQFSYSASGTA
# UniProt Q9NZQ7, residues 19-290: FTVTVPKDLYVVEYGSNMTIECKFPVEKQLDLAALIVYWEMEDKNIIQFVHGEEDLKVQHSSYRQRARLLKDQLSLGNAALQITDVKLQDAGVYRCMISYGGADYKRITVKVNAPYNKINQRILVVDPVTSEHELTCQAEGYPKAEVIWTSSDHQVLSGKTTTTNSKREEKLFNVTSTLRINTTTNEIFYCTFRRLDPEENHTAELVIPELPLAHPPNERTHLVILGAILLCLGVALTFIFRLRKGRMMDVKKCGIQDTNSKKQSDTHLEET
# UniProt P31751: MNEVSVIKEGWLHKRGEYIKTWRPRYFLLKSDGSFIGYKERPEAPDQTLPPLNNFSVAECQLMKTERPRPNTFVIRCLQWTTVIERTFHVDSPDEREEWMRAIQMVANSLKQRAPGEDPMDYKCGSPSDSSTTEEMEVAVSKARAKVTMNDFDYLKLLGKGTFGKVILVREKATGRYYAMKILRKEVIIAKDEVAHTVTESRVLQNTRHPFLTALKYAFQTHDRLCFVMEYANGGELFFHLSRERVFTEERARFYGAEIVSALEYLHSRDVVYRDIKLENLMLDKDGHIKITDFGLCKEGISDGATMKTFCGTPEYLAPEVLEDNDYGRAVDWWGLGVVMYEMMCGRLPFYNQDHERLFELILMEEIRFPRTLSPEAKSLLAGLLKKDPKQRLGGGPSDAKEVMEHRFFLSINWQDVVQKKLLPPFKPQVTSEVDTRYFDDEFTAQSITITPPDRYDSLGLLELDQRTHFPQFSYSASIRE
# Results are given in words; binding and its absence hold for the method and conditions named. In cells and extracts the contact can be indirect. Some binding calls cover weakened binding; strength is not graded here.
# How the values were obtained:
# Assay in all cases: pull-down; GST pull-down: Venus- or NV-tagged and GST-tagged plasmids co-transfected 1:1 in 293T cells for 2 d; 400 ug of total soluble protein with glutathione sepharose beads overnight at 4°C; Western blot (anti-GST, anti-N-GFP or anti-PD-L1); cells under normal culture conditions or EBSS-4 h
# GST-AKT1 (human) = GST-AKT1 (human) (UniProt P31749)
# GST-PD-L1 (human) = GST-PD-L1 (human) (UniProt Q9NZQ7)
# GST-AKT2 = GST-AKT2 (UniProt P31751)
binding (GST-AKT1 (human)),binding (GST-PD-L1 (human)),binding (GST-AKT2),Substance
–,binds,–,Venus-Akt1 FL (1-480 aa) (from UniProt P31749 1-480)
–,binds,–,Venus-Akt1-K14R (from UniProt P31749 1-480)
–,binds,–,Venus-Akt1-Y176A (from UniProt P31749 1-480)

# Further lines, the substance ahead of its results:
Substance,binding (GST-AKT1 (human)),binding (GST-PD-L1 (human)),binding (GST-AKT2)
NV-PD-L1 FL (full length 1-290 aa) (from UniProt Q9NZQ7 19-290),binds,–,–
Venus-Akt1 T1-111 (from UniProt P31749 1-111) (domain or fragment),–,no binding,–
Venus-PD-L1 FL1-290 (from UniProt Q9NZQ7 19-290),binds,–,binds
Venus-PD-L1 T19-290 (from UniProt Q9NZQ7 19-290) (domain or fragment),binds,–,–
